Reference: PubChem BioAssay AID2112 (National Center for Advancing Translational Sciences (NCATS), 2009)
“And” between values parts separate entries of the source, which are not always exact repeats. Identical values can stand only once. In all, about 240,000 compounds went through this assay and about 15 (0.006%) were called active. The shares of active, inactive and inconclusive entries below differ from those in the screen. Calls follow the shape of the dose curve; as a rule, active = well fitted inhibition curve with a large enough effect; inconclusive = small, poorly fitted or top-dose-only effect, or effect the other way, or another doubt; inactive = no such curve, though single readings can be large or run the other way. Potencies of inconclusive entries are doubtful fits and often do not repeat.

molecular target: Lysosomal alpha-glucosidase (Homo sapiens) (UniProt P10253); test: qHTS Assay for Inhibitors and Activators of Human alpha-Glucosidase From Spleen Homogenate; settings: 4-MU-alpha-glucoside fluorescence; series mostly up to 79.9 µM; activity change, negative = inhibition: at the top concentration;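 as to activity change, negative = inhibition: 0% = enzyme with vehicle and -100% = no enzyme basal signal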
Procedure, shortened: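 Enzyme source: human spleen homogenate, 1 ug/well. Buffer 50 mM citric acid/K phosphate pH 5.0, 0.01% Tween-20. 4-MU-alpha-glucoside 1 mM; 37 C x 40 min; NaOH/glycine stop; fluorescence.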
Potency is read from the fitted curve at half-maximal effect; tags tell the direction and shape of the fitted curve.

Activity change, negative = inhibition, inactive:
Cc1ccc(SCCC(=O)N/N=C/c2cccnc2)cc1 2.14%
CC(C)=CC[C@@H](O)C1=CC(=O)c2c(O)ccc(O)c2C1=O -7.42%
CCCCc1nc2c(c3c1C[C@H](C)OC3)CN(S(=O)(=O)c1ccc(C)cc1)CC2 -10.2% [at 17.4 µM]
Oc1ccccc1Nc1nc(NCC2CCCO2)c2ccccc2n1 (configuration not stated) 0.544%
Cc1cccc(C)c1Nc1c(-c2ccc(N3CCOCC3)cc2)nc2ncccn12 -20.7%
C[N+]1(Cc2ccccc2)CCC(C(=O)OCC2CCCC2)CC1 (configuration not stated) 5.42%
CCCCc1cc2c(cn1)=C(OC(=O)c1ccc(Cl)nc1)C(C)(OC(=O)CC)C(=O)C=2 (configuration not stated) 10.7% [at 17.4 µM]
COc1ccc2c(c1)OCC1=C2CCC2(C)C(=O)CC=C12 (configuration not stated) -4.5%
CCc1ccc(O)c(N=Cc2cccc(C)c2O)c1 -8.38%

Potency, inconclusive:
COC(=O)C(NC(C)=O)(Nc1nc2c(C)cc(C)cc2s1)C(F)(F)F (configuration not stated) 50.1 µM [inhibitor, single point]
Cn1c(=O)n(C)c2cc(/C=N/NC(N)=S)ccc21 11.2 µM [inhibitor, single point]
COC(=O)C1=CN(CC2CCCO2)C=C(C(=O)OC)C1c1ccsc1 (configuration not stated) 31.6 µM [activator, partial curve]
Cc1nnc(N(C)C(=O)c2ccccn2)s1 0.178 µM [inhibitor, full curve, poor fit]
N=c1oc2ccc3ccccc3c2cc1-c1nnc2n1CCCCC2 35.5 µM [activator, partial curve]
COC(=O)c1ccc(CSc2cc(C)c3cc(C)cc(C)c3n2)o1 50.1 µM [inhibitor, single point]
COC(=O)c1ccc(-n2nnnc2SCc2ccccc2OC)cc1 10 µM [inhibitor, full curve, poor fit]
COC(=O)c1cc2c(s1)-c1ccc(OC)cc1CC2 35.5 µM [activator, partial curve]
CCNc1ncc2nc(-c3ccccc3)c(=O)n(C)c2n1 50.1 µM [activator, single point]
O=c1c2c3nc4ccccc4nc3n(/N=C/c3cccs3)c2ncn1-c1ccccc1 1.58 µM [inhibitor, full curve]
CSc1nnc(-c2cccn(Cc3ccccc3)c2=O)o1 31.6 µM [activator, partial curve]
COCC(=O)Nc1nc2n(n1)C(c1ccc(OC)cc1)CC(c1ccc(OC)cc1)N2 (configuration not stated) 10 µM [inhibitor, full curve, poor fit]
O=C(O)/C=C/c1ccc(O)c(O)c1 39.8 µM [inhibitor, single point]
CCOP(=O)(OCC)c1nc(/C=C/c2ccccc2)oc1NCc1ccccc1 31.6 µM [activator, single point]
Cc1c(CCC(=O)O)c(=O)n2c([nH]c3ccccc32)c1C#N 39.8 µM [activator, partial curve]
COc1cc2nc(N(C)CCCNC(=O)C3CCCO3)nc(N)c2cc1OC (configuration not stated) 28.2 µM [activator, single point] and 39.8 µM [activator, partial curve]
CCN(CC1COc2ccccc2O1)C(=S)NCCCN(C)C (configuration not stated) 50.1 µM [inhibitor, single point]
C=CCN(c1ccccc1)S(=O)(=O)c1cccc(C(=O)Oc2ccc3c(C)cc(=O)oc3c2)c1 28.2 µM [activator, partial curve]
CC1CCCCN1Cc1ccc(-c2nnn(CC(=O)NC3CCCCC3)n2)cc1 (configuration not stated) 39.8 µM [inhibitor, partial curve]
Cc1cc(C)c2c(n1)nn1c(NCCOCCO)cc(C)nc21 35.5 µM [activator, single point]
COc1ccc(CCn2c(N)c(C(=O)NCc3ccco3)c3nc4ccccc4nc32)cc1 44.7 µM [activator, single point]
CCOC(=O)c1cc2c(=O)n3ccccc3nc2n(CCOC)c1=NC(=O)c1ccncc1 31.6 µM [activator, single point]
Cc1cc(=O)oc2cc(NS(=O)(=O)c3ccc(F)cc3)ccc12 39.8 µM [activator, partial curve]
CCc1cc2c(CN3CCN(CC)CC3)cc(=O)oc2cc1O 39.8 µM [activator, partial curve]
CCOC(=O)c1cnc2cc3c(cn2c1=O)CCCC3 28.2 µM [activator, single point]
CC(C)NCC(O)COc1ccc(CCOCC2CC2)cc1 (configuration not stated) 56.2 µM [inhibitor, single point]
N#Cc1c(NC(=O)CN2CCOCC2)oc(-c2ccccc2)c1-c1ccccc1 11.2 µM [inhibitor, single point]
CCCOc1ccc(/C(O)=C2/C(=O)C(=O)N(CCCN3CCOCC3)C2c2ccncc2)cc1 (configuration not stated) 44.7 µM [activator, single point]
CCOC(=O)c1cc2c(ccc3ccccc32)oc1=O 31.6 µM [activator, partial curve]
OC[C@@H]1[C@@H](c2ccc(F)cc2)C(c2ccccc2)=NN1c1ccccc1 35.5 µM [activator, partial curve]
COc1ccc(/C(O)=C2/C(=O)C(=O)N(c3ncccn3)C2c2ccc(OC)c(OC)c2)cc1 (configuration not stated) 14.1 µM [inhibitor, partial curve]

Potency, inactive:
CCOC(=O)N1CCN(/[N+]([O-])=N/Oc2ccc([N+](=O)[O-])cc2[N+](=O)[O-])CC1
COC(=O)CCC(=O)OC1(C)C(=O)C=C2C=C(C3CC3)N(Cc3ccco3)C=C2C1=O (configuration not stated)
